Measurements reported in PubChem BioAssay AID1347417 (National Center for Advancing Translational Sciences (NCATS), 2020).
Screen size: about 120,000 compounds; about 5,300 (4.4%) were called active. This list was built around the results that the source calls inconclusive (neither active nor inactive); the mix of calls is not that of the screen. The call rests on the fitted dose curve; in most records, active means well fitted inhibition curve with a large enough effect; inconclusive means small, poorly fitted or top-dose-only effect; inactive means no such curve, though single readings can be large or run the other way. Where the call is inconclusive, the potency comes from a doubtful curve fit.

Assay: qHTS Primary assay for Inhibitors of Plasmodium falciparum Dd2 growth in vitro; further: nearly all actives have a fitted effect of over 65% in size
Conditions: P. falciparum Dd2 growth, SYBR Green, 72 h; series mostly up to 28.9 µM
How it was run: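 Infected erythrocytes (Dd2, 0.3% parasitemia, 2.5% hematocrit final) are added to compound in RPMI-1640/Albumax II medium, grown 72 h at 37C in low oxygen, then lysed with saponin/Triton-X containing SYBR Green and read by fluorescence.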
Potency means the concentration at half of the fitted maximal effect; tags describe the fitted curve by direction and shape.

**Q.** With `O=C(Cn1cccc1-c1nc(-c2ccccc2)no1)NCCCc1ccccc1` as the compound, how does the Potency read?
**A.** inactive

**Q.** With `Cc1ccc(CNC(=O)CC2=C3CCCCC3N(Cc3ccc(F)cc3)C2=O)cc1` (stereo unspecified) as the compound, how does the Potency read?
**A.** inactive

**Q.** With `COc1ccccc1N1CCN(C(=O)Cn2c(C)cc3nc4n(c(=O)c32)CCCCC4)CC1` as the compound, how does the Potency read?
**A.** inactive

**Q.** For `Cc1ccccc1-c1nc(CS(=O)CC(=O)NCCc2ccc(Cl)cc2)c(C)o1` (stereo unspecified), which Potency is on record?
**A.** inactive

**Q.** For `CCOc1ccc(C2Cn3nnc(-c4nc(-c5ccc(OC)cc5)no4)c3CO2)cc1` (stereo unspecified), which Potency is on record?
**A.** inactive

**Q.** Which Potency does the source give for `O=C(c1ccsc1)N1CCCC(CN2CCCC2)CC1` (stereo unspecified) here?
**A.** inconclusive: 8.91 µM [inhibitor, partial curve]

**Q.** For `COCc1nc2nc(-c3ccccc3)c(-c3ccc(OC)nc3)cc2n1C`, which Potency is on record?
**A.** inactive

**Q.** With `O=C(NCCOc1ccccc1)C1CN(c2ccc(Cl)cc2)C(=O)N1` (stereo unspecified) as the compound, how does the Potency read?
**A.** inactive

**Q.** Which Potency does the source give for `COC[C@@H]1CN(Cc2ccc(C)cn2)C[C@H]1C(=O)N(C)C` here?
**A.** inactive

**Q.** Which Potency does the source give for `Cc1cc(F)ccc1NC(=O)CCC1CCCN(C(=O)c2ccc(Cl)s2)C1` (stereo unspecified) here?
**A.** inactive

**Q.** For `Cc1nn2c(c1-c1ccccc1Oc1ccccc1)N(C(=O)Cc1cccc(F)c1)CCC2`, which Potency is on record?
**A.** inconclusive: 0.447 µM [inhibitor, full curve, poor fit]

**Q.** With `CN(C)C(=O)c1ccnc2[nH]ccc12` as the compound, how does the Potency read?
**A.** inactive

**Q.** With `C=CCNC(=O)c1cnn2c1CN([S+](=O)([O-])c1cccc(C(F)(F)F)c1)CC2` as the compound, how does the Potency read?
**A.** inactive

**Q.** With `COC[C@@H]1CN(S(=O)(=O)c2ccccc2C)C[C@H]1c1ccncc1` as the compound, how does the Potency read?
**A.** inactive

**Q.** For `COc1ccccc1CNC(=O)c1ccc(NC(=O)N2CC(C)Sc3ccccc32)cc1` (stereo unspecified), which Potency is on record?
**A.** inconclusive: 7.08 µM [inhibitor, partial curve, poor fit]

**Q.** For `COc1ccc(C(=O)N[C@H]2C[C@@H](c3nc(-c4ccccc4)no3)N(C)C2)cc1`, which Potency is on record?
**A.** inactive

**Q.** With `CCN(CC)CCNC(=O)C1CCCN(c2nnc(C)c3c(C)n(-c4ccc(Cl)cc4)nc23)C1` (stereo unspecified) as the compound, how does the Potency read?
**A.** active: 11.2 µM

**Q.** For `CCOc1ccc(-c2cn3c(n2)sc2cc(C(=O)NCCC4=CCCCC4)ccc23)cc1`, which Potency is on record?
**A.** active: 7.08 µM

**Q.** Which Potency does the source give for `Cc1cc(CN2CCCCCCn3c(nnc3-c3ccc(F)cc3)CC2)n(C)n1` here?
**A.** inactive

**Q.** With `C#CCOc1ccc(C2C(C(=O)OC)=C(C)NC3=C2C(=O)c2ccccc23)cc1OCC` (stereo unspecified) as the compound, how does the Potency read?
**A.** inconclusive: 10 µM [inhibitor, single point]

**Q.** For `CN(C)c1cccc(NCc2nc3c(n2Cc2ccccc2)C(=O)N(CCOc2ccccc2)CCN3)c1`, which Potency is on record?
**A.** inconclusive: 3.98 µM [inhibitor, partial curve, poor fit]

**Q.** With `OCCOc1ccc(CN(CCN2CCCCC2)CC2CCCN(C3CCCC3)C2)cc1` (stereo unspecified) as the compound, how does the Potency read?
**A.** inconclusive: 11.2 µM [inhibitor, single point]

**Q.** For `CN1CC(c2ccccc2)CC2(CCN(C(=O)CCc3cccnc3)CC2)C1` (stereo unspecified), which Potency is on record?
**A.** inconclusive: 10 µM [inhibitor, single point]

**Q.** Which Potency does the source give for `O=C1Nc2ccc(-c3ccc4c(c3)OCO4)cc2C(=O)N2CCN(C(=O)NC3CCCCC3)C[C@H]12` here?
**A.** inconclusive: 3.98 µM [inhibitor, single point]

**Q.** With `COc1ccc(-c2cc(N3CCC(NC(=O)COc4ccccc4C)CC3)n[nH]2)cc1` as the compound, how does the Potency read?
**A.** inactive

**Q.** With `CS(=O)(=O)c1ccc(O[C@H]2COCCN(Cc3cccnc3)C2)cc1` as the compound, how does the Potency read?
**A.** inactive

**Q.** With `CCCCCC(=O)N1CCC(O)(c2csc(CN3CCN(c4ccccn4)CC3)n2)CC1` as the compound, how does the Potency read?
**A.** inconclusive: 8.91 µM [inhibitor, single point]

**Q.** Which Potency does the source give for `O=C(c1cn(Cc2ccccc2F)nn1)N1CCC(O)(c2cccc(C(F)(F)F)c2)CC1` here?
**A.** inconclusive: 17.8 µM [inhibitor, single point]

**Q.** For `O=C1N(C2CCN(S(=O)(=O)c3cccnc3)CC2)C(c2ccncc2)C12CCCCC2` (stereo unspecified), which Potency is on record?
**A.** inconclusive: 8.91 µM [inhibitor, single point]

**Q.** For `COc1ccccc1C(=O)N1CCC(Cc2n[nH]c(C)n2)CC1`, which Potency is on record?
**A.** inactive

**Q.** For `O=C(c1ccc(C2CCCNC2)cc1)N1CCCN(c2ccc(F)cc2)CC1` (stereo unspecified), which Potency is on record?
**A.** inconclusive: 17.8 µM [inhibitor, single point]

**Q.** Which Potency does the source give for `COc1ccc(-c2cnc3[nH]cc(CC(=O)NC4CCOCC4)c3c2)cc1` here?
**A.** inconclusive: 5.62 µM [inhibitor, single point]

**Q.** Which Potency does the source give for `O=C(C1CN(S(=O)(=O)c2cccs2)CC12CCCCC2)N1CCCC1` (stereo unspecified) here?
**A.** inactive

**Q.** With `Cc1cc(=O)n(CC(=O)Nc2cccc(C(F)(F)F)c2)c(N2CCC(C)CC2)n1` as the compound, how does the Potency read?
**A.** inconclusive: 1.41 µM [inhibitor, full curve]

**Q.** For `COc1ccccc1NC(=O)Nc1ccc2n(c1=O)C[C@H]1C[C@@H]2CN(C(=O)C(=O)O)C1`, which Potency is on record?
**A.** inactive

**Q.** Which Potency does the source give for `NC(=O)c1ccc(OC2CCN(C(=O)C3CCC3)CC2)nc1` here?
**A.** inconclusive: 14.1 µM [inhibitor, partial curve, poor fit]

**Q.** Which Potency does the source give for `O=C(c1ccccc1)N1CCCC2(CC(c3cccc(C(F)(F)F)c3)=NO2)C1` (stereo unspecified) here?
**A.** inconclusive: 7.94 µM [inhibitor, partial curve, poor fit]

**Q.** With `CCCOc1ccc(CNC(=O)CCn2ccn3nc4c(c3c2=O)CCCC4)cc1` as the compound, how does the Potency read?
**A.** inconclusive: 17.8 µM [inhibitor, single point]

**Q.** Which Potency does the source give for `COCCNc1ncccc1-c1noc([C@@H]2CCCN2Cc2ccncc2)n1` here?
**A.** inactive

**Q.** For `COC(C)(C)C(=O)N1CCc2onc(-c3ccc4c(c3)OCO4)c2C1`, which Potency is on record?
**A.** inactive

**Q.** Which Potency does the source give for `CN(CCc1nc2ccc(Cl)cc2[nH]1)c1cc(C2CC(O)C2)nc(N)n1` (stereo unspecified) here?
**A.** inactive

**Q.** For `O=C(Nc1nnc(S(=O)(=O)N2CCCCC2)s1)c1ccc(Cl)cc1`, which Potency is on record?
**A.** inactive

**Q.** Which Potency does the source give for `COc1ccc(-c2noc([C@@H]3CCCN3C(=O)CCCc3ccccc3)n2)cc1OC` here?
**A.** inconclusive: 10 µM [inhibitor, single point]

**Q.** For `CCc1ccc(-c2[nH]c3c(c2-c2c(-n4cccc4)n(C)c(=O)[nH]c2=O)c(=O)[nH]c(=O)n3C)cc1`, which Potency is on record?
**A.** inactive

**Q.** Which Potency does the source give for `COC(=O)CC1CCN(C(=O)C[C@H]2NC(=O)c3ccccc3NC2=O)CC1` here?
**A.** inactive

**Q.** Which Potency does the source give for `Cc1c(C(=O)NCc2ccc(Cl)cc2)sc2nc3n(c(=O)c12)CCCCC3` here?
**A.** inconclusive: 8.91 µM [inhibitor, partial curve]

**Q.** For `COCC(=O)N[C@@H]1CN(Cc2cccc(OC)n2)CC[C@@H]1c1nc(C)no1`, which outcome is on record?
**A.** inactive [at 5.79 µM]

**Q.** Which Potency does the source give for `O=C(NCc1nnc2cc(-c3nc(C4CC4)no3)ccn12)c1ccc(F)cc1` here?
**A.** inconclusive: 3.55 µM [inhibitor, single point]

**Q.** With `Cc1cccc(OCCc2noc(C3CN(C(=O)Nc4ccc5c(c4)OCCO5)C3)n2)c1` as the compound, how does the Potency read?
**A.** inconclusive: 11.2 µM [inhibitor, single point]

**Q.** For `Cc1ccc(OCc2nc(C3CCCCN3C(=O)c3ccncc3)no2)cc1` (stereo unspecified), which Potency is on record?
**A.** inactive

**Q.** For `Cc1ccccc1NC(=O)c1ccc2[nH]c(C)c(C)c2c1`, which Potency is on record?
**A.** inconclusive: 10 µM [inhibitor, single point]

**Q.** Which Potency does the source give for `N#Cc1ccc2nc(CO[C@H]3CN(Cc4ccccc4F)C[C@H]3F)[nH]c2c1` here?
**A.** inconclusive: 11.2 µM [inhibitor, single point]

**Q.** Which Potency does the source give for `CCC1CN(S(=O)(=O)c2cc(-c3cc(C)no3)ccc2C)c2cc(Cl)ccc2O1` (stereo unspecified) here?
**A.** inconclusive: 10 µM [inhibitor, single point]

**Q.** Which Potency does the source give for `O=C(c1ccc2c(c1)OCO2)N1CC2CC(C1)[C@H]1CCCC(=O)N1C2` (stereo partly specified) here?
**A.** inactive

**Q.** For `CCOc1ccc2c(n1)CCN(C(=O)NC1CCCC1)C2`, which Potency is on record?
**A.** inconclusive: 6.31 µM [inhibitor, partial curve, poor fit]

**Q.** For `CCOC(=O)c1[nH]c2ccccc2c1NC(=O)c1ccccc1F`, which Potency is on record?
**A.** inconclusive: 10 µM [inhibitor, single point]

**Q.** With `CCOCCOC1CCN(C(=O)Cc2cccc(OC)c2)CC1` as the compound, how does the Potency read?
**A.** inactive

**Q.** With `O=C(COc1ccc(F)cc1)N1CCCC(c2noc(COc3ccccc3F)n2)C1` (stereo unspecified) as the compound, how does the Potency read?
**A.** inconclusive: 5.01 µM [inhibitor, partial curve, poor fit]

**Q.** With `CN(C)c1nccnc1OC1CCN(C(=O)c2ccccc2)C1` (stereo unspecified) as the compound, how does the Potency read?
**A.** inactive

**Q.** For `COc1ccccc1N1CCN(C(=O)CN2C(=O)C(c3ccccc3)=NC2(C)C)CC1`, which Potency is on record?
**A.** inconclusive: 1.26 µM [inhibitor, full curve, poor fit]

**Q.** With `COc1ccc(OC)c(CCNC(=O)c2ccc3c(c2)c(C)c(C)n3Cc2ccccc2)c1` as the compound, how does the Potency read?
**A.** inconclusive: 17.8 µM [inhibitor, single point]

**Q.** For `CCCc1noc(-c2cccn3c(CNC(=O)c4ccc(F)cc4Cl)nnc23)n1`, which Potency is on record?
**A.** inactive

**Q.** Which Potency does the source give for `O=C(NC1CCN(c2cc(-c3ccccc3)[nH]n2)CC1)c1ccc2ccccc2n1` here?
**A.** inconclusive: 1.58 µM [inhibitor, partial curve, poor fit]

**Q.** Which Potency does the source give for `CN(C)C[C@@H]1CN(Cc2cccnc2)C[C@H]1NC(=O)c1ccc(F)c(Cl)c1` here?
**A.** inconclusive: 8.91 µM [inhibitor, single point]

**Q.** For `C[C@H]1[C@@H]2[C@H]3OC(=O)[C@@H](C)[C@@H]3CC[C@@]2(C)CC[C@@H]1NC(=O)CC(C)(C)C`, which Potency is on record?
**A.** active: 1.26 µM

**Q.** With `COc1ccc(C(=O)N2CCCC(c3nc(-c4cnccn4)no3)CCNC(=O)CC2)cc1F` (stereo unspecified) as the compound, how does the Potency read?
**A.** inactive

**Q.** For `COc1ccc(CN2C(=O)CO[C@H]3CN(C(=O)NCc4ccccc4)C[C@H]32)cc1`, which Potency is on record?
**A.** inconclusive: 7.94 µM [inhibitor, partial curve]

**Q.** With `CC1CCCN(C(=O)c2ccc(CN3C(=O)NC4(CCS(=O)(=O)CC4)C3=O)cc2)C1` (stereo unspecified) as the compound, how does the Potency read?
**A.** inactive

**Q.** With `COc1cccc(NC(=O)Cn2c(C)ccc(NS(=O)(=O)c3ccccc3)c2=O)c1` as the compound, how does the Potency read?
**A.** inconclusive: 4.47 µM [inhibitor, partial curve, poor fit]

**Q.** For `Cc1ccc(CN2CCCC(Cc3ncc(C)n3Cc3ccccc3)C2)o1` (stereo unspecified), which Potency is on record?
**A.** inconclusive: 0.631 µM [inhibitor, full curve, poor fit]

**Q.** Which Potency does the source give for `CCOC(=O)C(C)Oc1cccn2c(=O)c(-c3cc(C)n(-c4cccc(F)c4)n3)c(C)nc12` (stereo unspecified) here?
**A.** inconclusive: 12.6 µM [inhibitor, partial curve, poor fit]
